According to PubChem BioAssay AID504339 (National Center for Advancing Translational Sciences (NCATS), 2011):
The campaign covered roughly 390,000 compounds. About 17,000 (4.4%) were called active. This list was built around the results that the source calls inconclusive (neither active nor inactive); the mix of calls is not that of the screen. Calls come from the whole dose curve; as a rule, active = well fitted inhibition curve with a large enough effect; inconclusive = small, poorly fitted or top-dose-only effect; inactive = no such curve, though single readings can be large or run the other way. Potencies of inconclusive entries are doubtful fits and often do not repeat.

Target: Lysine-specific demethylase 4A (Homo sapiens) (UniProt O75164)
Assay: qHTS Assay for Inhibitors of JMJD2A-Tudor Domain; note: nearly all actives have a fitted effect of over 50% in size
Conditions: AlphaScreen JMJD2A-Tudor / H3K4me3 peptide binding; series mostly up to 114 µM
Potency is the fitted concentration of half-maximal effect; tags give direction and shape of the fitted curve.

Chain of UniProt O75164 (O75164 whole entry, looked up, the tested form may be a part): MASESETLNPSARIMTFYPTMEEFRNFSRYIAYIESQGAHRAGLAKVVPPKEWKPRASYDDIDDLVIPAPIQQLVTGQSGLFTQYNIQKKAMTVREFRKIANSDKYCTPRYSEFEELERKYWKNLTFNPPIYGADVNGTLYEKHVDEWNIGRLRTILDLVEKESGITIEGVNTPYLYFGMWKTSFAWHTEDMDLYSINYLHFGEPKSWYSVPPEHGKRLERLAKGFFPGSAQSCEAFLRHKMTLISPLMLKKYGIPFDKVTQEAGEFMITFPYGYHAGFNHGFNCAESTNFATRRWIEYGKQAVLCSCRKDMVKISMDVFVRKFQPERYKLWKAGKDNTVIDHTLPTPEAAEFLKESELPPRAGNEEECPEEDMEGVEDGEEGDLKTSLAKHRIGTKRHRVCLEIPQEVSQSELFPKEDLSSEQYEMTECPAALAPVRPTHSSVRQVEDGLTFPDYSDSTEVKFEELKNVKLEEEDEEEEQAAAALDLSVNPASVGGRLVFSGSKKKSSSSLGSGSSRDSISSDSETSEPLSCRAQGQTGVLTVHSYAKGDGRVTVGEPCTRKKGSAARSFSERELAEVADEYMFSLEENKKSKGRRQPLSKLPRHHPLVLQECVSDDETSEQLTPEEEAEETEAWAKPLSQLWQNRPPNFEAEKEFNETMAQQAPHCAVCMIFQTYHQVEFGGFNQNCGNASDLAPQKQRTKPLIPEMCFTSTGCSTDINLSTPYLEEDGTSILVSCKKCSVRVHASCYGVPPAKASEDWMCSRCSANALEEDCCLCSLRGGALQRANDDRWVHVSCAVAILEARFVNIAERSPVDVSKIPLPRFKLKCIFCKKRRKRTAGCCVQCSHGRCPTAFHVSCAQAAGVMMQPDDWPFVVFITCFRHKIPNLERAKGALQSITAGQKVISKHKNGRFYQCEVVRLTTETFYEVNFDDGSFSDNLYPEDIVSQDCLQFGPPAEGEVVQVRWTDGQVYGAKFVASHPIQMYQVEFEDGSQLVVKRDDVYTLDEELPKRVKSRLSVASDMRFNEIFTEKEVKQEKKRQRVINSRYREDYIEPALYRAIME

SMILES	Potency
CCCc1cc(=O)oc2cc(OCC(=O)NCCCn3ccnc3)c(Cl)cc12	inactive
C=CCn1c(=O)c(C#N)cc2c(=O)n3ccccc3nc21	inconclusive: 1.78 µM [inhibitor, full curve]
CCOc1ccc(NC2c3ccccc3C(=O)N2c2ccc(Cl)cn2)cc1 (configuration not stated)	inconclusive: 39.8 µM [inhibitor, full curve]
O=C(CCCn1c(=S)[nH]c2cc3c(cc2c1=O)OCO3)NC1CC1	inconclusive: 89.1 µM [inhibitor, partial curve]
N#C/C(=C\c1cccc(Br)c1)C(=O)N1CCCCC1	inconclusive: 89.1 µM [inhibitor, single point]
CCCCN1C(=O)/C(=C2\SC(N3CCOCC3)=NC2=O)c2ccccc21	inactive
Cn1nc(-c2ccccc2)c(C(=O)NCC(=O)O)c1Cl	inconclusive: 56.2 µM [inhibitor, partial curve, poor fit]
O=S(=O)(c1cccs1)N1CN(C2CCCCC2)c2nc3ccccc3nc21	inconclusive: 44.7 µM [inhibitor, partial curve]
COCCNC(=O)C(c1ccc(O)cc1)N(Cc1cccs1)C(=O)CCC(=O)Nc1ccccn1 (configuration not stated)	inactive
CCOc1cc(/C=N/NC(=O)C2CCCC2)ccc1OC(C)C	inactive
Cn1c(=O)c2[nH]c(SCCN3CCOCC3)nc2n(C)c1=S	active: 15.8 µM
O=C1/C(=C\c2ccco2)SC(=S)N1c1ccc(O)cc1	inconclusive: 56.2 µM [inhibitor, partial curve]
Cc1nc(C)c(-c2ccc(SCC(=O)Nc3cccc(F)c3)nn2)s1	inconclusive: 17.8 µM [inhibitor, partial curve]
c1ccc(-c2nc3ccccn3c2NCc2ccc3c(c2)OCO3)cc1	inconclusive: 56.2 µM [inhibitor, partial curve]
Cc1ccccc1OCC(O)Cn1c(SC(C)C)nc2c1c(=O)[nH]c(=O)n2C (configuration not stated)	inconclusive: 79.4 µM [inhibitor, partial curve]
CN(C)c1ccc(Nc2cc(Cl)ncn2)cc1	inconclusive: 56.2 µM [inhibitor, partial curve]
C/C(=N\Nc1ccc(C(=O)O)cc1)c1ccc(Br)cc1	active: 70.8 µM
COc1cc(/C=C2\SC(=S)N(NS(=O)(=O)c3ccccc3)C2=O)ccc1O	inconclusive: 56.2 µM [inhibitor, partial curve]
O=C1CNC(=S)N1C(CO)c1ccccc1 (configuration not stated)	inconclusive: 39.8 µM [inhibitor, single point]
Cc1c(CCO)c(=O)n(-c2ccccc2)n1S(=O)(=O)c1ccc(Cl)cc1	inconclusive: 79.4 µM [inhibitor, single point]
CCCOc1ccc(-c2nc(C#N)c(NCC3CCCO3)o2)cc1 (configuration not stated)	inconclusive: 56.2 µM [inhibitor, partial curve]
O=[N+]([O-])c1cccc2ccc(/C=C/c3ccc(Cl)cc3)nc12	inconclusive: 10 µM [inhibitor, full curve]
COc1ccc(-c2csc(NC(=O)CCS(=O)(=O)c3ccccc3)n2)c(OC)c1	inconclusive: 22.4 µM [inhibitor, full curve]

SMILES	Potency
CN(C)c1nc(NCc2ccccc2)nc(SCC(N)=O)n1	inconclusive: 22.4 µM [inhibitor, partial curve]
Cc1ccc(S(=O)(=O)N2CN(Cc3ccco3)c3nc4ccccc4nc32)cc1	inconclusive: 56.2 µM [inhibitor, partial curve, poor fit]
CN(C)c1ccc(/C=N\Nc2ccccn2)cc1	inconclusive: 28.2 µM [inhibitor, full curve]
COc1ccc(-n2c(Cn3nc(C(F)(F)F)cc3C)n[nH]c2=S)cc1	inconclusive: 17.8 µM [inhibitor, partial curve]
COc1ccc(Cc2nnc(NC(=O)Nc3ccc(F)cc3)s2)cc1OC	inconclusive: 14.1 µM [inhibitor, partial curve]
CCOC(=O)CC(=O)Nc1ccc(Br)cc1C(=O)O	active: 56.2 µM
O=C(N[C@@H](Cc1ccccc1)C(=O)OCc1ccccc1)c1nc[nH]c1C(=O)N1CCN(c2ccccc2)CC1	inconclusive: 44.7 µM [inhibitor, partial curve]
O=C(CN1CCCc2ccccc21)N/N=C/c1ccc(O)cc1O	inconclusive: 35.5 µM [inhibitor, single point]
COc1ccc(-c2ccc3ncnc(NCc4cccs4)c3c2)cc1	inactive
O=C(Nc1nnc(C2CC2)s1)C1Cc2ccccc2CN1S(=O)(=O)c1cccs1 (configuration not stated)	inactive
COc1ccc(C(=O)NCC2(N3CCCCC3)CCCCC2)cc1S(=O)(=O)N(C)C	inactive
COc1cccc(/C=C/C(=O)c2ccc(NS(=O)(=O)c3ccc(C)cc3)cc2)c1	inconclusive: 39.8 µM [inhibitor, single point]
Cc1cccc(C2CC3(CC(C)(C)NC(=S)N3)Oc3cc(O)ccc32)c1 (configuration not stated)	inactive
c1cncc(-c2nn[nH]n2)c1	inactive
C=CCOc1cccc(/C=C/c2nc3ccccc3c(=O)[nH]2)c1	inconclusive: 56.2 µM [inhibitor, partial curve]
CCN(CC)S(=O)(=O)c1cc(-c2nn(C)c(=O)c3ccccc23)ccc1C	inconclusive: 70.8 µM [inhibitor, partial curve]
COC(=O)/C=C1\S/C(=N/N=C/c2ccc(Cl)cc2)NC1=O	inconclusive: 63.1 µM [inhibitor, partial curve, poor fit]
CCN(CCCNC(=O)CSc1cc(=O)n(C)c2ccccc12)c1ccccc1	inconclusive: 50.1 µM [inhibitor, partial curve]
COc1ccc(C)cc1Nc1n[n+](-c2ccccc2)c(-c2c(OC)ccc3ccccc23)s1	inconclusive: 39.8 µM [inhibitor, partial curve]
Cc1[nH]c2ccccc2c1CCNS(=O)(=O)c1ccc(S(N)(=O)=O)cc1	inconclusive: 31.6 µM [inhibitor, full curve]
O=C(NC[C@H]1CCCO1)c1cccc2c1C(=O)c1ccc(-c3ccc(F)cc3OCc3ccccc3)cc1S2(=O)=O	inconclusive: 50.1 µM [inhibitor, partial curve]
CCCCc1nn2c(=O)cc(COC(=O)c3cccc(NC(=O)COc4ccccc4)c3)nc2s1	inactive
NC(=O)CC(NC(=O)c1cccc(Br)c1)c1ccc(N2CCN(c3ccccn3)CC2)c([N+](=O)[O-])c1 (configuration not stated)	inconclusive: 56.2 µM [inhibitor, partial curve]

SMILES	Potency
O=C(NC1CCCCCC1)C1CCN(C(=O)N2CCOc3ccc(Cl)cc32)CC1	inconclusive: 44.7 µM [inhibitor, partial curve]
CCN(CC)c1ccc(NC(=O)COc2ccc(C)cc2)cc1	inconclusive: 20 µM [inhibitor, full curve]
Cc1ccc(C2=NS(=O)(=O)N(C)C(C(=O)NC3CCCC3)=C2)cc1	inactive
CCOc1cc(-c2nnc(SCC(=O)NCc3ccccc3)nc2-c2ccc(OC)c(OCC)c2)ccc1OC	inconclusive: 56.2 µM [inhibitor, partial curve]
Cc1sc2nc(SCC(=O)Nc3cccc(S(N)(=O)=O)c3)[nH]c(=O)c2c1C	active: 89.1 µM
O=C(CSc1nc2ccc([N+](=O)[O-])cc2[nH]1)c1ccc2ccccc2c1	inconclusive: 56.2 µM [inhibitor, partial curve]
c1ccc(CN2CCN(CCOCCOc3ccc4c(c3)CCC4)CC2)cc1	active: 0.794 µM
O=C1c2ccccc2C(Nc2ccc3c(c2)OCCO3)N1Cc1ccccc1 (configuration not stated)	active: 39.8 µM
Cc1ccc2c(CN3CCCc4ccccc43)cc(=O)oc2c1C	inconclusive: 79.4 µM [inhibitor, single point]
O=C(COC(=O)CC1CC2CCC1C2)Nc1cccc(S(=O)(=O)NC2=NCCCCC2)c1 (configuration not stated)	inconclusive: 11.2 µM [inhibitor, partial curve]
CCOC(=O)c1ccc(N2CCN(c3ccc(F)cc3)CC2)c(NC(=O)Nc2cccc(OC)c2)c1	inconclusive: 70.8 µM [inhibitor, partial curve, poor fit]
CCC(=O)N1CCc2cc(Br)cc(S(=O)(=O)CCC(=O)N3CCN(c4ccccc4OC)CC3)c21	inactive
O=C(C1CCCN(Cc2ccc([N+](=O)[O-])cc2)C1)N1CCCCC1 (configuration not stated)	active: 25.1 µM
COc1ccccc1N1CCN(S(=O)(=O)c2ccc3[nH]c4c(c3c2)CCCC4)CC1	inconclusive: 10 µM [inhibitor, full curve]
O=c1oc(-c2ccco2)nc2ccccc12	inactive
COc1ccc(OCc2ccc(-c3nc(C#N)c(N4CCC(C)CC4)o3)o2)cc1	inconclusive: 35.5 µM [inhibitor, partial curve]
O=C(Cc1ccc(S(=O)(=O)N2CCOCC2)s1)Nc1cc(C(F)(F)F)ccc1N1CCCC1	inconclusive: 44.7 µM [inhibitor, partial curve, poor fit]
COc1ccc(OC2=NS(=O)(=O)c3ccccc32)cc1	inconclusive: 112 µM [inhibitor, single point]
CC(=O)c1ccc(-n2c(CCC(=O)O)ccc2-c2ccc(C)cc2)cc1	inconclusive: 79.4 µM [inhibitor, single point]
Cc1cc(-c2n[nH]c(=S)n2-c2ccccc2C)cs1	active: 35.5 µM
Cc1ccc2c(c1)[C@H]1[C@H](CO2)[C@H](c2ccccc2)[C@]2(C)C(=O)N(Cc3ccc(F)cc3)CC(=O)N12	inconclusive: 56.2 µM [inhibitor, partial curve, poor fit]
